Assay results from patent US20220340635A1 (ZHEJIANG DOER BIOLOGICS, published 2022).
Like-named read-outs stand apart in the source and are kept apart here.

What was measured:
Test in all cases: cell-based or functional assay
human GLP-1R [1] = biological target: T1, human GLP-1R (human, UniProt P43220)
GCGR [2] = biological target: GCGR
human GLP-1R [3] = biological target: T1, human GLP-1R; remark: listed apart in the source
GCGR [4] = biological target: GCGR; remark: listed apart in the source
β-klotho (KLB) = biological target: β-klotho (KLB)

B1: A073L1F6 (Fc fusion)
chain: YSEGTFTSDYSKYLDSQAAQDFVQWLMDGGPSSGAPPPSGGGGSGGGGSGGGGSA[letters of human IgG4 Fc with S228P N297A (EU numbers) omitted]
- GLP-1 R agonist activity (EC50, nM) (human GLP-1R [1]): 50.6 nM
- GCGR agonist activity (EC50, nM) (GCGR [2]): 43.2 nM

B2: A395L1F9L5M2 (Fc fusion)
chain: HSQGTFTSDYSKYLDEEAAQDFVQWLLAGGPSSGAPPPSGGGGSGGGGSGGGGSA[letters of human IgG1 Fc with changes omitted]GGGGAGGGGAGGGGAHPIPDSSPLLQFGGQVRQRYLYTDDAQQTEAHLEIREDGTVGGAADQSPESLLQLKALKPGVIQILGVKTSRFLCQRPDGALYGSLHFDPEACSFRERLLEDGYNVYQSEAHGLPLHCPGNKSPHRDPAPRGPCRFLPLPGLPPALPEPPGILAPQPPDVGSSDPLSMVGGSQGRSPSYES
- GLP-1 R agonist activity (EC50, nM) (human GLP-1R [3]): 1.31 nM
- GCGR agonist activity (EC50, nM) (GCGR [4]): 1.34 nM
- FGF21 activity (EC50, nM) (β-klotho (KLB)): 1.36 nM

B3: A402L1F9L5M2 (Fc fusion)
chain: HSQGTFTSDYSKYLDEEAAQDFVQWLLDGGPSSGAPPPSGGGGSGGGGSGGGGSA[letters of human IgG1 Fc with changes omitted]GGGGAGGGGAGGGGAHPIPDSSPLLQFGGQVRQRYLYTDDAQQTEAHLEIREDGTVGGAADQSPESLLQLKALKPGVIQILGVKTSRFLCQRPDGALYGSLHFDPEACSFRERLLEDGYNVYQSEAHGLPLHCPGNKSPHRDPAPRGPCRFLPLPGLPPALPEPPGILAPQPPDVGSSDPLSMVGGSQGRSPSYES
- GLP-1 R agonist activity (EC50, nM) (human GLP-1R [3]): 1.21 nM
- GCGR agonist activity (EC50, nM) (GCGR [4]): 1.25 nM
- FGF21 activity (EC50, nM) (β-klotho (KLB)): 0.89 nM

B4: A232L1F9L5M2 (Fc fusion)
chain: HSQGTFTSDYSKYLDEQAAQDFVQWLLAGGPSSGAPPPSGGGGSGGGGSGGGGSA[letters of human IgG1 Fc with changes omitted]GGGGAGGGGAGGGGAHPIPDSSPLLQFGGQVRQRYLYTDDAQQTEAHLEIREDGTVGGAADQSPESLLQLKALKPGVIQILGVKTSRFLCQRPDGALYGSLHFDPEACSFRERLLEDGYNVYQSEAHGLPLHCPGNKSPHRDPAPRGPCRFLPLPGLPPALPEPPGILAPQPPDVGSSDPLSMVGGSQGRSPSYES
- GLP-1 R agonist activity (EC50, nM) (human GLP-1R [3]): 1.42 nM
- GCGR agonist activity (EC50, nM) (GCGR [4]): 1.17 nM
- FGF21 activity (EC50, nM) (β-klotho (KLB)): 0.85 nM

B5: A266L1F9L5M2 (Fc fusion)
chain: HSQGTFTSDYSKYLDEQAAQDFVQWLLDGGPSSGAPPPSGGGGSGGGGSGGGGSA[letters of human IgG1 Fc with changes omitted]GGGGAGGGGAGGGGAHPIPDSSPLLQFGGQVRQRYLYTDDAQQTEAHLEIREDGTVGGAADQSPESLLQLKALKPGVIQILGVKTSRFLCQRPDGALYGSLHFDPEACSFRERLLEDGYNVYQSEAHGLPLHCPGNKSPHRDPAPRGPCRFLPLPGLPPALPEPPGILAPQPPDVGSSDPLSMVGGSQGRSPSYES
- GLP-1 R agonist activity (EC50, nM) (human GLP-1R [3]): 1.28 nM
- GCGR agonist activity (EC50, nM) (GCGR [4]): 1.37 nM
- FGF21 activity (EC50, nM) (β-klotho (KLB)): 0.93 nM

B6: A089L1F6 (Fc fusion)
chain: YSEGTFTSDYSKYLDEEAAQDFVQWLLAGGPSSGAPPPSGGGGSGGGGSGGGGSA[letters of human IgG4 Fc with S228P N297A (EU numbers) omitted]
- GLP-1 R agonist activity (EC50, nM) (human GLP-1R [1]): 43.7 nM
- GCGR agonist activity (EC50, nM) (GCGR [2]): 33.5 nM

B7: A089L1F9L5M2 (Fc fusion)
chain: YSEGTFTSDYSKYLDEEAAQDFVQWLLAGGPSSGAPPPSGGGGSGGGGSGGGGSA[letters of human IgG1 Fc with changes omitted]GGGGAGGGGAGGGGAHPIPDSSPLLQFGGQVRQRYLYTDDAQQTEAHLEIREDGTVGGAADQSPESLLQLKALKPGVIQILGVKTSRFLCQRPDGALYGSLHFDPEACSFRERLLEDGYNVYQSEAHGLPLHCPGNKSPHRDPAPRGPCRFLPLPGLPPALPEPPGILAPQPPDVGSSDPLSMVGGSQGRSPSYES
- GLP-1 R agonist activity (EC50, nM) (human GLP-1R [3]): 45.7 nM
- GCGR agonist activity (EC50, nM) (GCGR [4]): 37.5 nM
- FGF21 activity (EC50, nM) (β-klotho (KLB)): 0.87 nM

B8: A123L1F6 (Fc fusion)
chain: YSEGTFTSDYSKYLDEEAAQDFVQWLLDGGPSSGAPPPSGGGGSGGGGSGGGGSA[letters of human IgG4 Fc with S228P N297A (EU numbers) omitted]
- GLP-1 R agonist activity (EC50, nM) (human GLP-1R [1]): 45.6 nM
- GCGR agonist activity (EC50, nM) (GCGR [2]): 37.4 nM

B9: A135L1F6 (Fc fusion)
chain: YSEGTFTSDYSKYLDSQAAQDFVQWLMAGGPSSGAPPPSGGGGSGGGGSGGGGSA[letters of human IgG4 Fc with S228P N297A (EU numbers) omitted]
- GLP-1 R agonist activity (EC50, nM) (human GLP-1R [1]): 53.5 nM
- GCGR agonist activity (EC50, nM) (GCGR [2]): 51.9 nM

B10: A137L1F6 (Fc fusion)
chain: YSEGTFTSDYSKYLDSQAAQDFVQWLLDGGPSSGAPPPSGGGGSGGGGSGGGGSA[letters of human IgG4 Fc with S228P N297A (EU numbers) omitted]
- GLP-1 R agonist activity (EC50, nM) (human GLP-1R [1]): 63.5 nM
- GCGR agonist activity (EC50, nM) (GCGR [2]): 43.9 nM

B11: A175L1F6 (Fc fusion)
chain: YSEGTFTSDYSKYLDSQAAQDFVQWLLAGGPSSGAPPPSGGGGSGGGGSGGGGSA[letters of human IgG4 Fc with S228P N297A (EU numbers) omitted]
- GLP-1 R agonist activity (EC50, nM) (human GLP-1R [1]): 41.7 nM
- GCGR agonist activity (EC50, nM) (GCGR [2]): 52.2 nM

B12: A187L1F6 (Fc fusion)
chain: YSEGTFTSDYSKYLDEQAAQDFVQWLLDGGPSSGAPPPSGGGGSGGGGSGGGGSA[letters of human IgG4 Fc with S228P N297A (EU numbers) omitted]
- GLP-1 R agonist activity (EC50, nM) (human GLP-1R [1]): 42.1 nM
- GCGR agonist activity (EC50, nM) (GCGR [2]): 42.3 nM

B13: A209L1F6 (Fc fusion)
chain: YSEGTFTSDYSKYLDEQAAQDFVQWLLAGGPSSGAPPPSGGGGSGGGGSGGGGSA[letters of human IgG4 Fc with S228P N297A (EU numbers) omitted]
- GLP-1 R agonist activity (EC50, nM) (human GLP-1R [1]): 53.9 nM
- GCGR agonist activity (EC50, nM) (GCGR [2]): 63.3 nM

B14: A215L1F6 (Fc fusion)
chain: HSQGTFTSDYSKYLDEQAAQDFVQWLMDGGPSSGAPPPSGGGGSGGGGSGGGGSA[letters of human IgG4 Fc with S228P N297A (EU numbers) omitted]
- GLP-1 R agonist activity (EC50, nM) (human GLP-1R [1]): 1.94 nM
- GCGR agonist activity (EC50, nM) (GCGR [2]): 1.34 nM

B15: A227L1F6 (Fc fusion)
chain: HSQGTFTSDYSKYLDEQAAQDFVQWLMAGGPSSGAPPPSGGGGSGGGGSGGGGSA[letters of human IgG4 Fc with S228P N297A (EU numbers) omitted]
- GLP-1 R agonist activity (EC50, nM) (human GLP-1R [1]): 1.48 nM
- GCGR agonist activity (EC50, nM) (GCGR [2]): 1.5 nM

B16: A266L1F6 (Fc fusion)
chain: HSQGTFTSDYSKYLDEQAAQDFVQWLLDGGPSSGAPPPSGGGGSGGGGSGGGGSA[letters of human IgG4 Fc with S228P N297A (EU numbers) omitted]
- GLP-1 R agonist activity (EC50, nM) (human GLP-1R [1]): 1.75 nM
- GCGR agonist activity (EC50, nM) (GCGR [2]): 1.33 nM

B17: A271L1F6 (Fc fusion)
chain: HSQGTFTSDYSKYLDSQAAQDFVQWLMAGGPSSGAPPPSGGGGSGGGGSGGGGSA[letters of human IgG4 Fc with S228P N297A (EU numbers) omitted]
- GLP-1 R agonist activity (EC50, nM) (human GLP-1R [1]): 1.34 nM
- GCGR agonist activity (EC50, nM) (GCGR [2]): 1.39 nM

B18: A307L1F6 (Fc fusion)
chain: HSQGTFTSDYSKYLDSQAAQDFVQWLMDGGPSSGAPPPSGGGGSGGGGSGGGGSA[letters of human IgG4 Fc with S228P N297A (EU numbers) omitted]
- GLP-1 R agonist activity (EC50, nM) (human GLP-1R [1]): 1.95 nM
- GCGR agonist activity (EC50, nM) (GCGR [2]): 1.62 nM

B19: A451L1F6 (Fc fusion)
chain: HSQGTFTSDYSKYLDEERAQDFVQWLMATGPSSGAPPPSGGGGSGGGGSGGGGSA[letters of human IgG4 Fc with S228P N297A (EU numbers) omitted]
- GLP-1 R agonist activity (EC50, nM) (human GLP-1R [1]): 13 nM
- GCGR agonist activity (EC50, nM) (GCGR [2]): 11.4 nM

B20: A462L1F6 (Fc fusion)
chain: HSQGTFTSDYSKYLDSQRAQDFVQWLMDTGPSSGAPPPSGGGGSGGGGSGGGGSA[letters of human IgG4 Fc with S228P N297A (EU numbers) omitted]
- GLP-1 R agonist activity (EC50, nM) (human GLP-1R [1]): 20.1 nM
- GCGR agonist activity (EC50, nM) (GCGR [2]): 11.4 nM

B21: A499L1F6 (Fc fusion)
chain: HSQGTFTSDYSKYLDGQAAQDFVQWLLDGGPSSGAPPPSGGGGSGGGGSGGGGSA[letters of human IgG4 Fc with S228P N297A (EU numbers) omitted]
- GLP-1 R agonist activity (EC50, nM) (human GLP-1R [1]): 30.5 nM
- GCGR agonist activity (EC50, nM) (GCGR [2]): 12.3 nM

B22: A504L1F6 (Fc fusion)
chain: HSQGTFTSDYSKYLDSEAAQDFVQWLLAGGPSSGAPPPSGGGGSGGGGSGGGGSA[letters of human IgG4 Fc with S228P N297A (EU numbers) omitted]
- GLP-1 R agonist activity (EC50, nM) (human GLP-1R [1]): 21.8 nM
- GCGR agonist activity (EC50, nM) (GCGR [2]): 10.6 nM

B23: A512L1F6 (Fc fusion)
chain: HSQGTFTSDYSKYLDGEAAQDFVQWLLDGGPSSGAPPPSGGGGSGGGGSGGGGSA[letters of human IgG4 Fc with S228P N297A (EU numbers) omitted]
- GLP-1 R agonist activity (EC50, nM) (human GLP-1R [1]): 22.8 nM
- GCGR agonist activity (EC50, nM) (GCGR [2]): 12.2 nM

B24: A017L1F6 (Fc fusion)
chain: HSQGTFTSDYSKYLDSRRAQDFVQWLLAGGPSSGAPPPSGGGGSGGGGSGGGGSA[letters of human IgG4 Fc with S228P N297A (EU numbers) omitted]
- GLP-1 R agonist activity (EC50, nM) (human GLP-1R [1]): 19.9 nM
- GCGR agonist activity (EC50, nM) (GCGR [2]): 17.1 nM

B25: A021L1F6 (Fc fusion)
chain: HSQGTFTSDYSKYLDSRRAQDFVQWLLDGGPSSGAPPPSGGGGSGGGGSGGGGSA[letters of human IgG4 Fc with S228P N297A (EU numbers) omitted]
- GLP-1 R agonist activity (EC50, nM) (human GLP-1R [1]): 17.7 nM
- GCGR agonist activity (EC50, nM) (GCGR [2]): 17.8 nM
